From PubChem BioAssay AID588453 (National Center for Advancing Translational Sciences (NCATS), 2011)
Where “and” joins values, the source holds several entries; their conditions need not be identical. Equal values may be shown once. Hit rate of the full screen: of about 390,000 compounds, about 4,000 (1%) were called active. The inconclusive results got no clear call from the source; some entries with a clear call stand among them for comparison. Calls come from the whole dose curve; as a rule, active = well fitted inhibition curve with a large enough effect; inconclusive = small, poorly fitted or top-dose-only effect; inactive = no such curve, though single readings can be large or run the other way. Potencies of inconclusive entries are doubtful fits and often do not repeat.

Molecular target: Thioredoxin reductase 1, cytoplasmic (Rattus norvegicus) (UniProt O89049)
Test: qHTS Assay for Inhibitors of Mammalian Selenoprotein Thioredoxin Reductase 1 (TrxR1): qHTS; note: nearly all actives have a fitted effect of over 65% in size
Details: recombinant rTrxR1, NADPH fluorescence consumption, selenite substrate; series mostly up to 114 µM
Outline: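 Rat TrxR1 (90 nM in the dispensed reagent) was pre-reduced with 400 uM NADPH for 5 min at room temperature, then incubated with compound for 15 min. After 400 uM selenite was added, NADPH fluorescence (Ex 340/Em 450 nm) was followed for 8 min.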
Potency is the fitted concentration of half-maximal effect; tags give direction and shape of the fitted curve.

Sequence of UniProt O89049 (O89049 whole entry, looked up): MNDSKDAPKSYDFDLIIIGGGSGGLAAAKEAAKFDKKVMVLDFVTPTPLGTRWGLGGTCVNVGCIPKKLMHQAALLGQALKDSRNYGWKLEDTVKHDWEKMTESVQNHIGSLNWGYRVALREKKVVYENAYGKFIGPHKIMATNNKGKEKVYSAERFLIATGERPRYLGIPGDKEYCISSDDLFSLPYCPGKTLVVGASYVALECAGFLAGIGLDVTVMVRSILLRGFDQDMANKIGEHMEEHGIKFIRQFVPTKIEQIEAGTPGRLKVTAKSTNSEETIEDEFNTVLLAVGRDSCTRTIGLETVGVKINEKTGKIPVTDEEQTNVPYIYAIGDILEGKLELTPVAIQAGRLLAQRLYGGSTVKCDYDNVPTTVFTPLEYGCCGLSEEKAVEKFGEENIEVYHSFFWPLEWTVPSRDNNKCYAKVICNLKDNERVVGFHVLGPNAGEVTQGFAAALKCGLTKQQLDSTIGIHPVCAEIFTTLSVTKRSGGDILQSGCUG

| SMILES | Potency |
| --- | --- |
| CCCCN(C)Cc1cc(=O)oc2ccc3ccccc3c12 | inconclusive: 89.1 µM [inhibitor, partial curve, poor fit] |
| CCOC(=O)c1noc2ncnc(N3CCN(c4cccc(C(F)(F)F)c4)CC3)c12 | inactive |
| O=c1c2c3c(sc2ncn1/N=C/c1ccc([N+](=O)[O-])o1)CCCC3 | inconclusive: 6.31 µM [inhibitor, partial curve, poor fit] |
| CCN(CC(=O)Nc1cc(Cl)ccc1C)C(=O)C1COc2ccccc2O1 (stereo not given) | active: 50.1 µM |
| CCN1C(=O)C(O)(CC(=O)/C=C/C=C/c2ccccc2)c2ccccc21 (stereo not given) | inconclusive: 44.7 µM [inhibitor, partial curve, poor fit] |
| O=C(NCCNCCO)C1(C(F)(F)F)CC(CCc2ccccc2)CCCO1 (stereo not given) | inconclusive: 35.5 µM [inhibitor, partial curve, poor fit] |
| CC(=C1C(=O)c2ccccc2C1=O)N1CCN(Cc2ccccc2)CC1 | inactive |
| COc1nnc(-c2ccc(N3CCCCC3)c(NC(=O)c3ccccc3Cl)c2)c2ccccc12 | inactive |
| CC(C)CN1CCC(=O)N([C@H](CSc2ccc(Br)cc2)Cc2ccccc2)CC1 | inconclusive: 56.2 µM [inhibitor, single point] |
| O=C(CCS(=O)(=O)c1cccc2nonc12)NC1CCCCCC1 | inconclusive: 39.8 µM [inhibitor, partial curve, poor fit] |
| O=C1Nc2ccc(I)cc2/C1=C/c1cc(Br)c(O)c(Br)c1 | inconclusive: 50.1 µM [inhibitor, partial curve] and inconclusive: 26.7 µM [inhibitor, partial curve, poor fit] |
| COC(=O)c1cc(NC(=O)N2c3ccccc3Sc3ccccc32)cc(C(=O)OC)c1 | inactive |
| O=C1CNC(=O)/C1=C\c1ccc(O)cc1 | active: 20 µM |
| Cc1ccc2nc(-c3cccc(S(=O)(=O)N(C)C)c3)cn2c1 | inactive |
| O=C(O)CCc1nn2c3ccccc3n(CC(=O)O)c2nc1=O | inconclusive: 79.4 µM [inhibitor, partial curve, poor fit] |
| O=C(Nc1ccc(Cl)cc1Cl)C1CCCO1 (stereo not given) | inactive |
| COC(=S)N/C(=N\S(=O)(=O)c1ccc(Cl)cc1)c1ccccc1 | inactive |
| Cn1c(=S)c2[nH]c(SCC3CCCO3)nc2n(C)c1=O (stereo not given) | inconclusive: 12.6 µM [inhibitor, full curve, poor fit] |
| Cc1ccc(CNS(=O)(=O)c2ccc(CN3C(=O)c4cccnc4C3=O)cc2)o1 | inconclusive: 70.8 µM [inhibitor, partial curve] |
| Cc1cc(NC(=O)c2cc(Cl)ccc2Cl)ccc1-c1cc2ccccc2oc1=O | inactive |
| CC(=O)c1cccc(NC(=O)Cn2nc(-c3ccc(Cl)cc3)ccc2=O)c1 | inconclusive: 17.8 µM [inhibitor, partial curve] |
| C=CCOc1cccc(C2/C(=C(/O)c3ccc(F)cc3)C(=O)C(=O)N2CCN2CCOCC2)c1 (stereo not given) | inconclusive: 15.8 µM [inhibitor, single point] |
| CCOC(=O)C1=C(c2cccc(F)c2)NC(=S)NC1C (stereo not given) | inactive |
| Cc1cc2cc(CNC(=O)c3ccco3)ccc2n1C | inconclusive: 15.8 µM [inhibitor, single point] |

| SMILES | Potency |
| --- | --- |
| Cc1nn(Cc2ccc(Cl)cc2)c(C)c1NC(=O)CCCn1nc(C)c([N+](=O)[O-])c1C | inactive |
| CCOC(=O)COc1ccc2c(c1)C(=O)CC1(CCN(C(C)=O)CC1)O2 | inactive |
| CCN(CCO)c1ccc(NC(=S)Nc2cccc(S(=O)(=O)N(C)C)c2)cc1 | inconclusive: 39.8 µM [inhibitor, single point] |
| CC1(c2nnc(-c3cccc(Cl)c3)o2)CC(c2ccc(C#N)cc2)=NO1 (stereo not given) | inconclusive: 17.8 µM [inhibitor, partial curve, poor fit] |
| Cn1c(=O)cc(SCC(=O)N2CCCC2)c2cc(Cl)ccc21 | inconclusive: 79.4 µM [inhibitor, partial curve, poor fit] |
| NC(CSC12CC3CC(CC(C3)C1)C2)C(=O)O (stereo not given) | inconclusive: 35.5 µM [inhibitor, partial curve] |
| Cc1cc2c(cc1NC(=O)c1ccccc1Cl)n(C)c(=O)c(=O)n2C | inactive |
| O=c1cc(C=NNc2ccccc2)[nH]c(=O)[nH]1 | inconclusive: 44.7 µM [inhibitor, partial curve, poor fit] |
| NS(=O)(=O)c1ccc(NC(=O)C2Cc3ccccc3CN2C(=O)c2ccco2)cc1 (stereo not given) | inconclusive: 22.4 µM [inhibitor, full curve] |
| COC(=O)c1c(NC(=O)/C=C/c2ccco2)sc2c1CCC2 | inconclusive: 22.4 µM [inhibitor, full curve] |
| Cn1c(SCc2cc(=O)c3cc(Cl)ccc3[nH]2)nnc1-c1ccccc1 | inactive |
| S=c1[nH]nc(-c2ccc(Br)o2)n1Cc1ccccc1 | inconclusive: 0.794 µM [inhibitor, full curve, poor fit] |
| C/C(=N/NC(=O)c1cc2ccccc2cc1O)c1ccco1 | inconclusive: 79.4 µM [inhibitor, single point] |
| Cn1cc([N+](=O)[O-])c(C(=O)NNC(=O)c2ccc([N+](=O)[O-])cc2Cl)n1 | inactive |
| Cc1cc(C)nc(SCC(=O)c2ccc([N+](=O)[O-])cc2)n1 | inconclusive: 89.1 µM [inhibitor, single point] |
| Cc1ccc(S(=O)(=O)CCC(=O)Nc2nccs2)cc1 | inconclusive: 79.4 µM [inhibitor, single point] |
| CSc1nc(Nc2ccc(Cl)cc2)c(C#N)c(=O)[nH]1 | inactive |
| Cc1sc2ncnc(NCc3ccccc3)c2c1C | inactive |
| O=C(/C=C/c1ccccc1)c1ccccn1 | inconclusive: 11.2 µM [inhibitor, partial curve, poor fit] |
| NC(=O)C1CCN(c2oc(-c3ccccc3)nc2S(=O)(=O)c2ccc(Br)cc2)CC1 | inconclusive: 35.5 µM [inhibitor, partial curve, poor fit] |
| Cc1c(C(=O)N(Cc2ccccc2)C(C)C)cnn1-c1ccccc1 | inactive |
| COc1cccc(/C=N/n2c(COc3ccccc3)n[nH]c2=S)c1 | inconclusive: 7.08 µM [inhibitor, partial curve] |
| CCCCN1C(=O)C(O)(CC(=O)c2ccco2)c2cc(Br)ccc21 (stereo not given) | inactive |
| CCOC(=O)C1CCCN(C2CC(=O)N(c3ccc(N4C(=O)CC(N5CCCC(C(=O)OCC)C5)C4=O)cc3)C2=O)C1 (stereo not given) | inconclusive: 70.8 µM [inhibitor, partial curve, poor fit] |

| SMILES | Potency |
| --- | --- |
| Cn1cc(C(=O)O)c(=O)c2cc(S(=O)(=O)N3CCCCC3)ccc21 | inactive |
| Cc1c(/C(O)=C2/C(=O)C(=O)N(CCN3CCOCC3)C2c2ccco2)cnn1-c1ccccc1 (stereo not given) | inconclusive: 50.1 µM [inhibitor, partial curve, poor fit] |
| NC(=S)N=Nc1c(O)cc(O)c2[nH]c(=O)ccc12 | inconclusive: 28.2 µM [inhibitor, full curve, poor fit] |
| O=C(NC1CCCC1)C(c1ccc(F)cc1)N(Cc1ccc(Cl)cc1)C(=O)CCl (stereo not given) | inconclusive: 12.6 µM [inhibitor, full curve, poor fit] |
| CCc1ccccc1N1CC(c2nc3ccccc3n2CC(C)C)CC1=O (stereo not given) | inactive |
| Cc1oc(-c2ccccc2Cl)nc1CS(=O)(=O)CC(=O)NC1CCCC1 | inconclusive: 31.6 µM [inhibitor, single point] |
| COC(CNc1ccc([N+](=O)[O-])c(NCC(OC)OC)c1C#N)OC | inconclusive: 79.4 µM [inhibitor, single point] |
| O=C(c1ccco1)[C@@H]1[C@@H]2C(=O)N(c3ccccc3)C(=O)[C@@H]2C2c3ccccc3C=CN21 (stereo not given in full) | inconclusive: 25.1 µM [inhibitor, partial curve] |
| COc1ccc(S(=O)(=O)NC2CCCC2)cc1C(N)=O | inconclusive: 17.8 µM [inhibitor, single point] |
| CCc1ccc(N2C(=O)c3ccc4c5c(ccc(c35)C2=O)CC4)cc1 | inactive |
| CNc1nc2c(c(=O)n(C)c(=O)n2C)n1Cc1ccccc1 | inactive |
| COc1ccccc1CCNC(=O)CSc1ccc(-c2ccco2)nn1 | inconclusive: 25.1 µM [inhibitor, single point] |
| Cc1cccc2c1CC(C)(C)N/C2=C\C(N)=O | inconclusive: 14.1 µM [inhibitor, full curve, poor fit] |
| CCCCCCc1ccc(N2C[C@H](CCCCC)[C@@H](CC(=O)NCc3ccccc3)C2=O)cc1 | inactive |
| CCC(=O)NC(=S)Nc1ccc(NC(=O)COc2ccc([N+](=O)[O-])cc2)cc1 | inconclusive: 79.4 µM [inhibitor, single point] |
| Cc1ccc(C)c(N2CCN(C(=O)c3cc(S(=O)(=O)N4CCCCC4)cn3C)CC2)c1 | inactive |
| Cc1cc(C(C2C(=O)CC(C)(C)CC2=O)C2C(=O)CC(C)(C)CC2=O)cc(C)c1OC(F)F | inconclusive: 12.6 µM [inhibitor, full curve] |
| c1ccc(CN2CCC(Nc3ncnc4sccc34)CC2)cc1 | inactive |
| COc1ccc(/C=C/C(=O)OCn2c(SC)nnc(C)c2=O)cc1OC | inconclusive: 17.8 µM [inhibitor, full curve] |
| N#Cc1ccc(C=NN2CCCCCC2)cc1 | inactive |
| N#CCCN(C(=S)Nc1ccc(S(=O)(=O)N2CCOCC2)cc1)c1ccccc1F | inconclusive: 39.8 µM [inhibitor, partial curve] |
| COc1ccc2[nH]c3c(=S)nc[nH]c3c2c1 | inactive |
